# Measurements published in the supplement of paper PMC4604168 (melanoma cell lines).
# The other results are listed elsewhere or left out. Single values are uncertain, as repeats are few or missing.
# System: WM115
# Experiment: cell count relative to DMSO control; melanoma cells; higher = more viable cells
# Conditions: library dose: low library concentration; 72 h
# 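Further: cell number obtained by counting DAPI-stained nuclei in high-throughput microscope images with image analysis software, screen run in 1,536-well plates.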
row,SMILES,cell count [%]
1,"CNC(=O)c1cc(Oc2ccc(NC(=O)Nc3ccc(Cl)c(C(F)(F)F)c3)cc2)ccn1 [sorafenib] + Cc1cc(SCc2sc(-c3ccc(C(F)(F)F)c(F)c3)nc2C)ccc1OCC(=O)O [GW0742] (first compound 0.4 µM, partner dose 2 µM)",106
2,"CS(=O)(=O)CCNCc1ccc(-c2ccc3ncnc(Nc4ccc(OCc5cccc(F)c5)c(Cl)c4)c3c2)o1 [lapatinib] + O=C(Oc1ccc([N+](=O)[O-])cc1)N1CCC(C(O)(c2ccc3c(c2)OCO3)c2ccc3c(c2)OCO3)CC1 [JZL184] (first compound 0.8 µM, partner dose 1 µM)",108
3,"COc1ccc2c(c1)CCC1C2CCC2(C)C(NCCCCCCN3C(=O)C=CC3=O)CCC12 (stereo not given) + C/C(O)=C(\C#N)C(=O)Nc1cc(Br)ccc1Br [LFM-A13] (first compound 0.4 µM, partner dose 2 µM)",98

# System: WM1716
# Experiment: as above
# Conditions: library dose: low library concentration; 72 h
row,SMILES,cell count [%]
1,"C/C(O)=C(\C#N)C(=O)Nc1cc(Br)ccc1Br + CC(C)CCN1c2nc(Nc3cc(F)c(O)c(F)c3)ncc2N(C)C(=O)C1C [BID1870] (first compound 2 µM, partner dose 0.2 µM)",104
2,"COc1ccc(C2=N[C@@H](c3ccc(Cl)cc3)[C@@H](c3ccc(Cl)cc3)N2C(=O)N2CCNC(=O)C2)c(OC(C)C)c1 [Nutlin-3] + N.N.[Cl][Pt][Cl] [cisplatin] (first compound 0.1 µM, partner dose 1.6 µM)",101
3,"O=C(Nc1cc(C(F)(F)F)cc(C(F)(F)F)c1)c1cc(Cl)ccc1O + C/C(O)=C(\C#N)C(=O)Nc1cc(Br)ccc1Br [LFM-A13] (first compound 0.016 µM, partner dose 2 µM)",94.7
4,"Cc1cc(SCc2sc(-c3ccc(C(F)(F)F)c(F)c3)nc2C)ccc1OCC(=O)O + C/C(O)=C(\C#N)C(=O)Nc1cc(Br)ccc1Br [LFM-A13] (first compound 2 µM, partner dose 2 µM)",111
5,"CCCCCCCCCCCCCCCCCCOP(=O)([O-])OC1CC[N+](C)(C)CC1 [Perifosine] + C[As](C)SC[C@H](NC(=O)CC[C@H](N)C(=O)O)C(=O)NCC(=O)O [Darinaparsin] (first compound 0.4 µM, partner dose 0.4 µM)",108
6,"O=C(/C=C/c1cccnc1)NCCCCC1CCN(C(=O)c2ccccc2)CC1 + N.N.[Cl][Pt][Cl] [cisplatin] (first compound 0.01 µM, partner dose 1.6 µM)",89.7
7,"COc1ccc(-c2ccc3c(N4CCOCC4)nc(N4C[C@@H](C)O[C@@H](C)C4)nc3n2)cc1CO + O=C(Oc1ccc([N+](=O)[O-])cc1)N1CCC(C(O)(c2ccc3c(c2)OCO3)c2ccc3c(c2)OCO3)CC1 [JZL184] (first compound 0.02 µM, partner dose 1 µM)",88.8
8,"C=C(c1ccc(C(=O)O)cc1)c1cc2c(cc1C)C(C)(C)CCC2(C)C [Bexarotene] + C[As](C)SC[C@H](NC(=O)CC[C@H](N)C(=O)O)C(=O)NCC(=O)O [Darinaparsin] (first compound 2 µM, partner dose 0.4 µM)",87.5
9,"CC1(C)CCC(c2ccc(Cl)cc2)=C(CN2CCN(c3ccc(C(=O)NS(=O)(=O)c4ccc(N[C@H](CCN5CCOCC5)CSc5ccccc5)c(S(=O)(=O)C(F)(F)F)c4)cc3)CC2)C1 + O=C(Oc1ccc([N+](=O)[O-])cc1)N1CCC(C(O)(c2ccc3c(c2)OCO3)c2ccc3c(c2)OCO3)CC1 [JZL184] (first compound 0.4 µM, partner dose 1 µM)",78.3
10,"CC(=O)O[C@@]12CO[C@@H]1C[C@H](O)[C@@]1(C)C(=O)[C@H](O)C3=C(C)[C@@H](OC(=O)[C@H](O)[C@@H](NC(=O)OC(C)(C)C)c4ccccc4)C[C@@](O)([C@@H](OC(=O)c4ccccc4)[C@H]21)C3(C)C [Docetaxel] + C/C(O)=C(\C#N)C(=O)Nc1cc(Br)ccc1Br [LFM-A13] (first compound 0.0001 µM, partner dose 2 µM)",36.8
11,"CC[C@]1(O)C[C@H]2CN(CCc3c([nH]c4ccccc34)[C@@](C(=O)OC)(c3cc4c(cc3OC)N(C=O)[C@H]3[C@@](O)(C(=O)OC)[C@H](OC(C)=O)[C@]5(CC)C=CCN6CC[C@]43[C@@H]65)C2)C1 [vincristine] + N.N.[Cl][Pt][Cl] [cisplatin] (first compound 0.0001 µM, partner dose 1.6 µM)",99.4
12,"O=c1[nH]nc(Sc2ncc([N+](=O)[O-])s2)n1-c1ccc2c(c1)OCCO2 + O=C(Oc1ccc([N+](=O)[O-])cc1)N1CCC(C(O)(c2ccc3c(c2)OCO3)c2ccc3c(c2)OCO3)CC1 [JZL184] (first compound 0.2 µM, partner dose 1 µM)",97.9
13,"O=S(=O)(c1ccccc1)N(CC(F)(F)F)c1ccc(C(O)(C(F)(F)F)C(F)(F)F)cc1 + C/C(O)=C(\C#N)C(=O)Nc1cc(Br)ccc1Br [LFM-A13] (first compound 1.4 µM, partner dose 2 µM)",79.7
14,"O=C(Nc1cc(C(F)(F)F)cc(C(F)(F)F)c1)c1cc(Cl)ccc1O + O=C(Oc1ccc([N+](=O)[O-])cc1)N1CCC(C(O)(c2ccc3c(c2)OCO3)c2ccc3c(c2)OCO3)CC1 [JZL184] (first compound 0.016 µM, partner dose 1 µM)",101
15,"COc1cc([C@@H]2c3cc4c(cc3[C@@H](O[C@@H]3O[C@@H]5CO[C@@H](C)O[C@H]5[C@H](O)[C@H]3O)[C@H]3COC(=O)[C@H]23)OCO4)cc(OC)c1O [etoposide] + Cn1cc(C2=C(c3cn(C4CCN(Cc5ccccn5)CC4)c4ccccc34)C(=O)NC2=O)c2ccccc21 [Enzastaurin] (first compound 0.02 µM, partner dose 0.8 µM)",94.9
16,"O=C(Nc1cccc(Cl)c1)Nc1ncc(CCNc2ncnc3ccsc23)s1 + C/C(O)=C(\C#N)C(=O)Nc1cc(Br)ccc1Br [LFM-A13] (first compound 0.0008 µM, partner dose 2 µM)",107
17,"CCN(CC)CCNC(=O)c1c(C)[nH]c(/C=C2\C(=O)Nc3ccc(F)cc32)c1C [sunitinib] + Cc1cc(SCc2sc(-c3ccc(C(F)(F)F)c(F)c3)nc2C)ccc1OCC(=O)O [GW0742] (first compound 0.4 µM, partner dose 2 µM)",148
18,"O=C(Oc1ccc([N+](=O)[O-])cc1)N1CCC(C(O)(c2ccc3c(c2)OCO3)c2ccc3c(c2)OCO3)CC1 + CC(C)CCN1c2nc(Nc3cc(F)c(O)c(F)c3)ncc2N(C)C(=O)C1C [BID1870] (first compound 1 µM, partner dose 0.2 µM)",93.1
19,"NC1(c2ccc(-c3nc4ccn5c(=O)[nH]nc5c4cc3-c3ccccc3)cc2)CCC1 + N.N.[Cl][Pt][Cl] [cisplatin] (first compound 0.4 µM, partner dose 1.6 µM)",87
20,"Cc1cc(SCc2sc(-c3ccc(C(F)(F)F)c(F)c3)nc2C)ccc1OCC(=O)O + O=c1cc(-c2cccc3c2Sc2ccccc2S3)oc(N2CCOCC2)c1 [KU55933] (first compound 2 µM, partner dose 1 µM)",110
21,"Cc1cc(SCc2sc(-c3ccc(C(F)(F)F)c(F)c3)nc2C)ccc1OCC(=O)O + O=C(Oc1ccc([N+](=O)[O-])cc1)N1CCC(C(O)(c2ccc3c(c2)OCO3)c2ccc3c(c2)OCO3)CC1 [JZL184] (first compound 2 µM, partner dose 1 µM)",104
22,"O=C(Nc1cc(C(F)(F)F)cc(C(F)(F)F)c1)c1cc(Cl)ccc1O + C[C@]12O[C@H](C[C@]1(O)CO)n1c3ccccc3c3c4c(c5c6ccccc6n2c5c31)CNC4=O [Lestaurtinib] (first compound 0.016 µM, partner dose 0.004 µM)",108
23,"CCCCCCCCc1ccc(CCC(N)(CO)CO)cc1 [fingolimod] + N.N.[Cl][Pt][Cl] [cisplatin] (first compound 2 µM, partner dose 1.6 µM)",80.8
24,"O=S(=O)(c1ccccc1)N(CC(F)(F)F)c1ccc(C(O)(C(F)(F)F)C(F)(F)F)cc1 + O=C(Oc1ccc([N+](=O)[O-])cc1)N1CCC(C(O)(c2ccc3c(c2)OCO3)c2ccc3c(c2)OCO3)CC1 [JZL184] (first compound 1.4 µM, partner dose 1 µM)",90
25,"O=C(/C=C/c1cccnc1)NCCCCC1CCN(C(=O)c2ccccc2)CC1 + O=C(Oc1ccc([N+](=O)[O-])cc1)N1CCC(C(O)(c2ccc3c(c2)OCO3)c2ccc3c(c2)OCO3)CC1 [JZL184] (first compound 0.01 µM, partner dose 1 µM)",91.1
26,"NC1(c2ccc(-c3nc4ccn5c(=O)[nH]nc5c4cc3-c3ccccc3)cc2)CCC1 + Cc1cc(SCc2sc(-c3ccc(C(F)(F)F)c(F)c3)nc2C)ccc1OCC(=O)O [GW0742] (first compound 0.4 µM, partner dose 2 µM)",96.3
27,"NC1(c2ccc(-c3nc4ccn5c(=O)[nH]nc5c4cc3-c3ccccc3)cc2)CCC1 + C[As](C)SC[C@H](NC(=O)CC[C@H](N)C(=O)O)C(=O)NCC(=O)O [Darinaparsin] (first compound 0.4 µM, partner dose 0.4 µM)",85.6
